Structures are written as SMILES. Screen size: about 110,000 compounds; about 230 (0.21%) showed an effect of 50% or more. The list shows a part of the results. Where a SMILES comes first, the peptide text is derived from it. The star is where a group is joined. Cbz = O=C(OCc1ccccc1)*; Boc = CC(C)(C)OC(=O)*
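Further: 30 min substrate incubation versus DMSO and 10 µM JCP410 controls.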

For this assay, the target named is DPAP1 (Plasmodium falciparum, UniProt Q8IIJ9). In words: primary screen, percent inhibition; read by cleavage of a fluorogenic dipeptide substrate; higher = more effect of the substance. Further details: species or system P. falciparum D10 trophozoite lysates; single well.
DPAP1, sequence (Q8IIJ9 whole entry, looked up): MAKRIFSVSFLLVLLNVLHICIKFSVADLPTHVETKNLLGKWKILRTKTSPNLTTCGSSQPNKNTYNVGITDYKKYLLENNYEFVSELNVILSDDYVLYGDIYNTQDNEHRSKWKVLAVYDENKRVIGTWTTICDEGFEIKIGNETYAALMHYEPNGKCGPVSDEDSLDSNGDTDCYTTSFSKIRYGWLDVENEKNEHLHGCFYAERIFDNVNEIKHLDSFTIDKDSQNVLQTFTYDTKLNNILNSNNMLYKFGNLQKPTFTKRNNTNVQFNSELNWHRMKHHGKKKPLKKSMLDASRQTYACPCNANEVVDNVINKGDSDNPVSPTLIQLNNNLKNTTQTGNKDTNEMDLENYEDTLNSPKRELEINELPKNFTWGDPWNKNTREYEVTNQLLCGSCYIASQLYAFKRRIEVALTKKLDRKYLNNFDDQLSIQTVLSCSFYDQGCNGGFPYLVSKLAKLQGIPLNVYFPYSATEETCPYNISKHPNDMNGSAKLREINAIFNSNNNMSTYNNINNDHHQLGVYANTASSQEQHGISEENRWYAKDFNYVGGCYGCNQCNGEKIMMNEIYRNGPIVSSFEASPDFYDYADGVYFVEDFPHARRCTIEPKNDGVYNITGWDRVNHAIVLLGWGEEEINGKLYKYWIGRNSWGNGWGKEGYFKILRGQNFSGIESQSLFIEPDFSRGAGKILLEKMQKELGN
Consider `O=c1c(=O)n(Cc2ccc(Cl)cc2)ccn1CCc1ccccc1`, for which the “% Inhibition @ 10 uM” value was -2.41%. As to `Cc1oc(-c2ccc(C(=O)NCc3ccccn3)cc2)nc1CS(=O)c1ccccc1` (stereo not drawn), the “% Inhibition @ 10 uM” value was -0.767%.

Regarding `Cc1ccc(CN2C(=O)c3ccccc3NC2c2ccc3c(c2)OCO3)cc1` (stereo not drawn), the “% Inhibition @ 10 uM” value was 0.727%. Regarding `NC(=O)c1ccc(NC(=O)COc2ccc3ccccc3c2Br)cc1`, the “% Inhibition @ 10 uM” value was -2.07%. As to `O=C(C1CCC(CNc2c(N3CCCCC3)c(=O)c2=O)CC1)N1CCN(c2ccccn2)CC1` (stereo not drawn), the “% Inhibition @ 10 uM” value is 4.4%. Turning to `C=CCNC(=O)c1cccc(Br)c1`, the “% Inhibition @ 10 uM” value was -0.0369%.

As for `Cc1nc2cnn(-c3ccccc3)c(=O)c2s1`, the “% Inhibition @ 10 uM” value is listed as -3.15%. Turning to `CCOC(=O)c1c(NC(C)=O)sc2c1CCCC2=O`, the “% Inhibition @ 10 uM” value is -1.29%. Next, `O=C(NCCCN1CCCC1=O)[C@@H](c1ccccc1)N1Cc2ccccc2C1=O`: 1.26%; `CC(=O)c1c(Cl)nc2ccc(Br)cc2c1-c1ccccc1`: 7.5%; `Cc1ccc(Cc2c(C)nc3c(C(=O)N4CCCCCC4)cnn3c2C)cc1`: -2.14%. Next, `O=C(O)C1C2CCC(O2)C1C(=O)N1CCN(c2ccc(F)cc2)CC1` (stereo not drawn): -7.93%; `COc1ccc(NC(=O)C2Oc3ccccc3OC2C)cc1` (stereo not drawn): 2.53%. Take `Cc1ccc(CN2C(=O)C3(C(C#N)=C(N)OC4=C3C(=O)CC(C)(C)C4)c3ccccc32)cc1` (stereo not drawn): the “% Inhibition @ 10 uM” value is -5.96%. Turning to `CN1CCN(C2=NC(=O)/C(=C/c3ccc(O)cc3)S2)CC1`, the “% Inhibition @ 10 uM” value is on record as -4.39%. For `COCCCNC(=O)c1ccc(-n2c(C)cc3c2CCC(C)C3)cc1` (stereo not drawn) the value was -0.613%; for `O=C(O)c1ccc(N2C(=O)C=CC2=O)cc1`, -0.128%. On to `COc1ccc(C2=NOC(C(=O)NCC3CCCO3)C2)cc1` (stereo not drawn), for which the “% Inhibition @ 10 uM” value was -0.0115%. For `CCOc1ccc(N(CC(=O)N(C)Cc2ccccc2)S(C)(=O)=O)cc1` the value was -3.1%; for `CCOC(=O)N1CCC(/N=c2\c(O)c(O)\c2=N/CCc2ccccc2)CC1`, 1.93%; for `c1ccc(C2=Nn3c(Cn4nnc5ccccc54)nnc3SC2)cc1`, 1.25%. Next, `CC(C)C[C@H](NC(=O)OCc1ccccc1)C(=O)N[C@H](C=O)CCCCNC(=O)OC(C)(C)C` (Cbz-Leu-Lys(Boc)-aldehyde): 2.87%; `Cc1nn(-c2ccccc2)c2c1C(c1ccc(O)cc1)C(C#N)=C(N)O2` (stereo not drawn): -0.902%; `Cc1c(C(=O)N2CCCC2)oc2c1-c1nn(CC(=O)NCc3ccc(F)cc3)cc1CC2`: 2.54%.

Turning to `CC(C)CCNS(=O)(=O)c1ccc(-c2ccc(O)nn2)s1`, the “% Inhibition @ 10 uM” value stood at 4.09%.

In the case of `CSc1ncc(C(=O)N2CCN(Cc3ccccc3)CC2)c(-c2ccccc2)n1`, the “% Inhibition @ 10 uM” value was determined as 5.1%. For `CC(Sc1nc(-c2cccnc2)ccc1C#N)C(=O)O` (stereo not drawn), the “% Inhibition @ 10 uM” value is -3.63%. Next, `COc1cccc(C2C(C#N)=C(N)Oc3[nH]nc(C)c32)c1OCc1c(F)cccc1Cl` (stereo not drawn): 0.121%; `COc1ccccc1Oc1cc(-n2nc(C)cc2C)ncn1`: -1.55%; `CSc1nc(Oc2ccc(C(C)C)cc2)cc(-n2cncn2)n1`: 4.81%. Consider `COc1ccc(C2=N/C(=C\c3sccc3C)C(=O)O2)cc1OC`, for which the “% Inhibition @ 10 uM” value was -1.82%. Next, `CCOC(=O)c1c(NC(=O)C(F)(OC)C(F)(F)F)sc(CC)c1-c1ccccc1` (stereo not drawn): -3.04%; `N#CC1(NC(=O)[C@H](Cc2c(F)cccc2F)NC(=O)c2ccc(-c3cc(C(=O)O)ccc3Cl)cc2)CCS(=O)(=O)CC1`: 3.1%; `Cc1ccc(-c2cc(C(=O)O)c3ccccc3n2)cc1`: 3.05%. For `O=C(Cn1ncc2ccccc21)NCc1cccc(Br)c1` the value was -1.7%; for `Cc1cccc(-n2c(C)cc(C(=O)C(=O)Nc3nccs3)c2C)c1`, 0.444%. For the molecule `COc1ccc(C(=O)c2sc3nc(C)cc(-c4cccs4)c3c2N)cc1OC`, the “% Inhibition @ 10 uM” value amounted to 3.05%. Regarding `CC(C)(C)C1CCc2c(sc(NC(=O)C3CC=CCC3C(=O)O)c2C#N)C1` (stereo not drawn), the “% Inhibition @ 10 uM” value is on record as 5.59%.

In the case of `COc1ccc(CC(=O)N2N=C(C(F)F)CC2(O)C(F)F)cc1` (stereo not drawn), the “% Inhibition @ 10 uM” value is given as 1.34%.

Take `CCOC(=O)C1=C(c2ccccc2)N=C(S)NC1c1cccc(OC)c1OC` (stereo not drawn): the “% Inhibition @ 10 uM” value is reported as -0.142%. Next, `COc1cc2c(C(=O)N3CCC(C)CC3)cn(C)c(=O)c2cc1OC`: -4.86%; `CCN1CCCC1CNC(=O)CSCc1nc(-c2ccc(SC)cc2)oc1C` (stereo not drawn): 2.37%; `CCOc1ccc(C(=O)Nc2nc(C)c(C(=O)OC)s2)cc1Br`: 15.8%. For `Cc1cc(-c2ccccc2)ccc1C(=O)N[C@@H](CC(C)C)C(=O)NCC#N` the value was -1.41%; for `CCC(C)Nc1nc2c(cc1C#N)COC(C)(C)C2` (stereo not drawn), -1.51%.

In the case of `CCOc1ccccc1NC(=O)C1=C(C)NC(=O)NC1c1ccc(C(C)C)cc1` (stereo not drawn), the “% Inhibition @ 10 uM” value is given as 3.13%.

With `Cc1cc(C(=O)N2CCN(c3ccc(OCc4ccccc4)cc3)CC2)c(C)o1`, the “% Inhibition @ 10 uM” value was determined as 7.68%. For `CC(C)(C)CC(C)(C)c1ccc(OCC(=O)O)cc1` the value was -0.834%; for `O=C(O)c1cccc(NC(=O)C23CC4CC(CC(C4)C2)C3)c1`, -4.61%. Consider `CCCn1c(=O)c(C(=O)Nc2ccccc2C)c(O)c2ccccc21`, for which the “% Inhibition @ 10 uM” value was -0.034%. For the molecule `Cc1ccc(S(=O)(=O)Nc2ccc(NS(=O)(=O)c3ccc(F)cc3)cc2)cc1`, the “% Inhibition @ 10 uM” value is listed as -3.95%.

Take `CC1CCCC(NC(=O)Cn2cccc2C(=O)c2ccccc2)C1C` (stereo not drawn): the “% Inhibition @ 10 uM” value is listed as -0.522%.

As for `Cc1nn(CC(=O)NCC2CCCO2)c(=O)c2ccccc12` (stereo not drawn), the “% Inhibition @ 10 uM” value was -3.96%. Next, `CC1=C(C(=O)OCc2ccccc2)C(c2ccc(Cl)cc2)C2=C(O)CC(C)(C)CC2=N1` (stereo not drawn): -0.294%. Regarding `Cc1nn(C)c(C)c1C1C(C#N)=C(N)OC2=C1C(=O)CCC2` (stereo not drawn), the “% Inhibition @ 10 uM” value is reported as -0.105%. Next, `COc1cc(CNCc2c(C(=O)O)c(C)n(Cc3ccc(F)cc3Cl)c2C)cc(OC)c1OC`: 27.5%; `CC(C)COC(=O)CC(CN)c1ccccc1` (stereo not drawn): 1.13%. Regarding `Cc1ccc(CNC(=O)c2c(-c3ccccc3)noc2C)cc1`, the “% Inhibition @ 10 uM” value is given as -5.01%. For `CC(CN1CCC(O)CC1)c1ccccc1` (stereo not drawn) the value was -0.603%; for `Nc1cc(C(=O)c2ccc(C(=O)O)c(N)c2)ccc1C(=O)O`, 22.9%; for `COc1ccccc1CNC(=O)c1cc2c(s1)CSC2`, -2.14%. Take `CCOC(=O)C1=CN(C)C=C(C(=O)OCC)C1c1cccc(OC)c1OC`: the “% Inhibition @ 10 uM” value is reported as -1.48%. Next, `COc1cccc(CNc2nc3nc(C)c(Cl)c(C)n3n2)c1`: -0.671%; `COc1cccc(-c2nc(CS(=O)(=O)CC(=O)N3CCN(C)CC3)c(C)o2)c1`: -3.7%.

Regarding `COc1cc(OC)cc(C(=O)N[C@@H](CC(C)C)C(=O)NCC#N)c1`, the “% Inhibition @ 10 uM” value is recorded as -3.04%. For `O=CN1CCN(C2CCCCCC2)CC1`, the “% Inhibition @ 10 uM” value is recorded as -1.81%. Next, `Cc1ccsc1CCNS(=O)(=O)c1csc(C(N)=O)c1`: 0.581%.

With `CCN(CC)S(=O)(=O)c1ccc(NC(=O)COc2ccc(Br)c(C)c2)cc1`, the “% Inhibition @ 10 uM” value worked out at 0.658%.

As to `Cc1cccc(C(=O)Nc2nc3nc(C)c(Cl)c(C)n3n2)c1`, the “% Inhibition @ 10 uM” value turned out to be 5.2%. Next, `COc1ccc(-c2cn3c4ccccc4n(N)c3n2)cc1OC`: -0.828%; `CCOC(=O)C1=C(CN2CCN(c3ccccn3)CC2)NC(=O)NC1c1cccs1` (stereo not drawn): -5.18%; `Cc1cccc(C)c1NC(=O)c1nccnc1C(=O)O`: -2.66%. For `CC(Oc1ccc(Cl)cc1Cl)C(=O)Nc1ccccc1` (stereo not drawn) the value was 0.907%; for `CC(NC(=O)CN(C)c1nnc(N2CCCC2=O)s1)c1ccccc1` (stereo not drawn), -4.59%. For `CCOCCCNC(=O)C(c1ccccc1)N(Cc1cccs1)C(=O)c1ccccc1O` (stereo not drawn) the value was -2.9%. For the molecule `O=C(CSc1ncccn1)N1c2ccccc2Sc2ccccc21`, the “% Inhibition @ 10 uM” value is -2.6%. On to `CC(Nc1nc2ccccc2n2cnnc12)c1ccccc1` (stereo not drawn), for which the “% Inhibition @ 10 uM” value stood at 0.981%. On to `N#CCNC(=O)C(CC(=O)Nc1cccc(C(N)=O)c1)CS(=O)(=O)Cc1ccccc1` (stereo not drawn), for which the “% Inhibition @ 10 uM” value is -8.82%. Next, `Cc1ccc(CSc2nc(=O)c3c(n2C)NC(=O)CC3c2cccc(F)c2F)cc1` (stereo not drawn): 3.84%; `Cc1nn(C(C)C(=O)NC(C)c2ccccc2)c(=O)c2c1sc1ccccc12` (stereo not drawn): -0.856%. For the molecule `c1ccc(-n2nnnc2SCCCNCc2cccs2)cc1`, the “% Inhibition @ 10 uM” value is listed as -2.88%. For `CC12CCC(C(N)=O)(c3nc4ccccc4nc31)C2(C)C` (stereo not drawn), the “% Inhibition @ 10 uM” value is -5.13%. `CCCNC(=O)CCCc1nnc2n(CCC)c(=O)c3sccc3n12`: the “% Inhibition @ 10 uM” value is listed as -3.13%. As to `c1ccc(-c2csc(N3CCC(c4ccccc4)CC3)n2)cc1`, the “% Inhibition @ 10 uM” value amounted to 1.13%. For `CCC(C)NC(=O)C1=C(C)C(=O)OC12CCN(C(C)=O)CC2` (stereo not drawn) the value was -0.234%; for `O=C(/C=C/c1ccccn1)c1ccc(C(=O)/C=C/c2ccccn2)cc1`, -0.261%.

As for `CCOP(=O)(CN(CC)CC)OCC`, the “% Inhibition @ 10 uM” value is recorded as -8.49%. For `CC(C)C[C@H](NC(=O)c1cccc(NC(=O)N2CCN(C)CC2)c1)C(=O)NCC#N` the value was -9.15%. Next, `COc1ccc(Br)cc1C1C2=C(CCCC2=O)N(CCC(=O)O)C2=C1C(=O)CCC2`: -0.703%. As to `CCOC(=O)c1cc2c(=O)n3ccccc3nc2n(CC(C)C)/c1=N/C(=O)c1ccc(Cl)cc1`, the “% Inhibition @ 10 uM” value is -2.9%. For `CC(Cc1cccc(C(F)(F)F)c1)NC1CCN(Cc2ccccc2)CC1` (stereo not drawn) the value was -5.31%; for `O=C(O)c1ccc(CNCc2cccc(Oc3ccccc3)c2)cc1`, 1.42%; for `CCOC(=O)N1CCC2(CC1)OC(=O)C(C)=C2C(=O)NCCCc1ccccc1`, 1.31%.

On to `CN(C1CCCCC1)S(=O)(=O)c1ccc(-c2ccc(O)nn2)o1`, for which the “% Inhibition @ 10 uM” value is recorded as -0.73%. Next, `COC(=O)c1ccc(OCC(O)CN2CCC(C)CC2)cc1` (stereo not drawn): -1.47%; `NC(CC(=O)c1ccc(Cl)cc1Cl)C(Cl)(Cl)Cl` (stereo not drawn): 1.33%. For `Oc1cccc(-c2nc(O)c3c4c(sc3n2)CCCC4)c1` the value was -2.84%; for `CC(C)CC(NC(=O)c1ccc2[nH]cnc2c1)C(=O)NCC#N` (stereo not drawn), 9%; for `Sc1nnc(C2OCCc3ccccc32)o1` (stereo not drawn), -0.902%.

(Values after PMC6919601, “Identification of Plasmodium dipeptidyl aminopeptidase allosteric inhibitors by high throughput screening” (PLoS ONE, 2019).)
